Some of the results follow.
Test system: PfSIP2 AP2 domain 1 (GST-tagged)
Assay: gcPBM binding intensity (ln(normalized median fluorescence intensity)); higher = stronger DNA binding
In short: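 The highest Masliner-normalised natural-log median intensity across replicate spots of either probe orientation is reported as binding intensity. GST-tagged P. falciparum DNA-binding domains expressed in E. coli were applied for 1 h to an Agilent 4 × 180k array of primer-extended double-stranded 36-bp intergenic genomic probes plus negative controls, and bound protein was detected with Alexa488 anti-GST antibody and scanned at 488 nm.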

Row | Sequence | gcPBM binding intensity (ln)
1 | TTATATTTATATGTAATACAAAATAACAAAAAATTT [CACACA_negctrl_site1721] | 6.86
2 | TATATATATATATCCACACACATACATATATTAATA [CACACA_site69] | 9.67
3 | TTGGTAATTTTAAAATGTACTTATTATATATATATA [XGTACX_site5642] | 8.67
4 | AAATTAAAAGAAAATACACACCTGTGGGTGCTTATA [CACACA_site5143] | 8.11
5 | ATTTTTTTTTGTTTAATGTTATGTGGTCATTAAATT [CACACA_negctrl_site1177] | 7.03
6 | TATTTATTCACTTATTGTACTTATATATATAATAAA [XGTACX_site6147] | 7.21
7 | AATTAACCGAAACACACACACATATATATATATATA [CACACA_site3963] | 9.14
8 | TTTTGTTGTTGTTGTTGTACATAAATAATAAAATAT [XGTACX_site8681] | 7.39
9 | ATATATTTTTTTTAGCGTACATGCAAAAAAAAAAAA [XGTACX_site4590] | 7.26
10 | TCATAAATTAAACACACACACACATCTGGATACCCC [CACACA_site9096] | 7.3
11 | TATACACACAGACATGCATGCACATATATATATACA [TGCATGCA_site30] | 7.87
12 | CATATTTTGAACTTCACACATATATATATATATATA [CACACA_site4228] | 9.66
13 | GGTAGATTATTATTAACGAAAAATGTTTTTAACATA [GTGCAC_negctrl_site216] | 7.07
14 | CCTTTCTATTGAAAATGTACATATATATTATTATAT [XGTACX_site5527] | 7.29
15 | AATAATTGTAGACATGCACACACAAATATTATATAT [CACACA_site8181] | 8.37
16 | AATAATTGTTATAGTTGTACAATACATATATTACAA [XGTACX_site30] | 7.02
17 | TGTATATATAAAAATATACACACTGTATTATTGTAA [CACACA_site3757] | 6.86
18 | AATATATATACTTTTTTTTTTTTTTTTTTTTTTTTT [CACACA_negctrl_site520] | 8.75
19 | ACAAATTGTTAAAGGTGTACAATACATATATAAGAA [XGTACX_site4906] | 7.38
20 | TATGTTTACATATACGTGCACATGAATGTATACATT [GTGCAC_site9894] | 9.69
21 | TTTAGCACAAACAAAAAAAAAATAGAAAAAAATATA [CACACA_negctrl_site1772] | 6.88
22 | AAATAAAAAATGGAAATCTTAACAAGAATCATTAAC [CACACA_negctrl_site1626] | 6.86
23 | TATATACAGAATATATGTACATATTCATTTTATATT [XGTACX_site5139] | 6.97

Row | Sequence | gcPBM binding intensity (ln)
24 | AAAAAATAAATAAATAGTACTTTAAAAGAAAAAAAA [XGTACX_site5051] | 6.67
25 | AAAGAAAACCAAGTGGTGCATTTTCGTTACTTCATC | 10
26 | CAATGTTACTATAATACACACAATATGTATTTGTCT [CACACA_site6668] | 7.11
27 | TAAAAAAAAGGAAATACATGCATCTACATATATATA [TGCATGCA_site500] | 7.2
28 | ATATATTTCATTTTTGTACACACAACGTTGGAGGGT [CACACA_site8999] | 7.24
29 | ATATAGGTAATAATAATACACACGGTGAAATATAGA [CACACA_site4040] | 6.82
30 | AAAAAAAAAATATATATATATATATAATATATATAT [TGCATGCA_negctrl_site329] | 8.59
31 | AAAAACTAACTGTATTGTACTCTCTTATAAATTCAC [XGTACX_site8967] | 6.91
32 | GACAATATTAAAACATGTACATGCATTTTATGAATA [XGTACX_site553] | 7.05
33 | TATAATATAAAATATGCACACATTGGAATGGGAGAA [CACACA_site3746] | 8.17
34 | TATTGTAAAGTGTCATTATTACGTTATATTATATAT [CACACA_negctrl_site98] | 6.87
35 | ATATAAGTATACACATGTACATATTTCTTATGTATA [XGTACX_site2854] | 7.05
36 | GTATGATGTGAACATTGTACGAATGAATATATCTAA [XGTACX_site3789] | 6.84
37 | TATAAAGACACGTACACACACTAAGTATATCCAATA [CACACA_site6855] | 7.23
38 | AAAAAATTTATAAAAGCACACAAAATAAAAAAAAAT [CACACA_site8420] | 6.99
39 | AAAATGTTAAATATTAAATATGAAACAAAAAAAAAA [GTGCAC_negctrl_site211] | 6.81
40 | TATAATTTAAAATACACACACATATATATAATATAT [CACACA_site2000] | 6.99
41 | TAAATACATTTATATACACACCTATATATATATATA [CACACA_site5137] | 9.28
42 | TCCAAATGAAAAAATTGTACATATTTTATCATATAT [XGTACX_site6159] | 7
43 | ATAAGAAATTTCATACGTACATAAATAAATATATAT [XGTACX_site2932] | 7.19
44 | TTTCATTTTTGAAGGTGTACTTAAAATTTATGTAAT [XGTACX_site6671] | 7.05
45 | AAAATTTATTATCTATATAATAATATGAAACAAAAC [GTGCAC_negctrl_site731] | 7.27
46 | CTCATTTTGTTAATGGTGCAAAAAAAAAAAAAAAAA | 11

Row | Sequence | gcPBM binding intensity (ln)
47 | ATGAAAAAAAGACATGCATGTAAATATAAATTGCTT [TGCATGCA_site504] | 6.88
48 | CATTATAAGAGACACACACACATATATAAATATGTA [CACACA_site6621] | 7.06
49 | AGTAAGAGGCATTAAGCATGCATATTATTATAAGCA [TGCATGCA_site237] | 6.77
50 | TATTTAAAACTATACACATGCATTATATAAAGATAT [TGCATGCA_site702] | 7.16
51 | TTATAAAATATATATACATGCACAAAATTATAAGTA [TGCATGCA_site294] | 7.62
52 | AATCAACATTTTTTTTGCTATTTTTTTTTTTAATTA [CACACA_negctrl_site891] | 6.71
53 | AAAAAAACATAAAATACACACAACCTTAAGAATGTA [CACACA_site3293] | 6.77
54 | TACTTATGTGCATACCTACACACTTACATATATATA [CACACA_site2975] | 7.75
55 | GATGATGTTTATTTGTGTACATATTAATACTTAATA [XGTACX_site1902] | 7.61
56 | AAGAACAGAACGTACACACACATATATATATATATA [CACACA_site3457] | 9.32
57 | AAAAAAAGAATGTGAACACACACATTGAATATAATT [CACACA_site8341] | 6.79
58 | AATTATTTACCCTATACACACAAAACCCACTAAAAA [CACACA_site4801] | 7.54
59 | TATAAATAAATACATACACACACATACATATATATA [CACACA_site9024] | 7.42
60 | AATCATATGAAAAATACATGCGCATGGATACCTTTA [TGCATGCA_site224] | 6.7
61 | ATAGGACATGTATCCAGTACATATTTAAAAAAAATA [XGTACX_site88] | 6.84
62 | GCATATATCAAATATCGTACATTTTTTAAATTAAAA [XGTACX_site3994] | 7.04
63 | ATAAAATCAAAATATACACACAAGGGGGAAAATCAA [CACACA_site2809] | 7.32
64 | TTTGTAAGTCTTTGTTGTACTCAATAGAATGAAGAA [XGTACX_site8930] | 7.68
65 | TTTTCTTTTTTTTATTGTACTTATAAAAATAAATAA [XGTACX_site3498] | 7.03
66 | TGATAACCTAATAATACACACACATGAATATATATA [CACACA_site8226] | 7.09
67 | GTCGCCAAAAGGTGTACACATAATGCATTATCATAA [CACACA_site6112] | 7.58
68 | TAAAAAAAATAGCATACACACATATATACATATATA [CACACA_site658] | 6.78
69 | ATTAAAAAATTATTCACACAAAATAAAAAAATGAAA [CACACA_site4918] | 6.93

Row | Sequence | gcPBM binding intensity (ln)
70 | TACACATAATATAATGCATGTGTGATGTATGTTTAA [TGCATGCA_site697] | 6.87
71 | ATATTTAGGATTATCTGTACATAATATGTTTAATTA [XGTACX_site3426] | 7.14
72 | AAAATTATTTTTATGTGTACTTATTTATTATTTATA [XGTACX_site6665] | 7.07
73 | TTGTATTCCTTTTACAACTACCATGAAGAGAATTTT [CACACA_negctrl_site1286] | 6.94
74 | AAAAAAAACGCACATACACACACACCCATATATATA [CACACA_site9118] | 7.41
75 | TTTTATTTTTTCCGACGTACATCCATTATATATAAT [XGTACX_site4469] | 7.22
76 | AAATGTTAAAATGACAGTACATATATAAAAAAAAAA [XGTACX_site3936] | 6.89
77 | AAATATTTGGAGAAATGTACATATTATAAATATATT [XGTACX_site6885] | 6.98
78 | CTAGGAAATTATATGGGTACTCATATTCATAAAAAA [XGTACX_site1846] | 6.93
79 | TGCATGCATTATCATAGTACATATAATGTTGTATAA [XGTACX_site2775] | 6.97
80 | TAATCTTTCGTACATGTACACACAGAAAAAAAAAAA [CACACA_site8798] | 7.17
81 | ATTATTAAGTTTCACAAGAACATTGTTAACAATTTT [CACACA_negctrl_site1128] | 6.92
82 | TATTAAGTATTTTACGTACACACTTATAAATGTACA [CACACA_site3885] | 7.01
83 | AATTTATATTTTCGTAGTACGTATTTTATTCTTTTG [XGTACX_site4162] | 6.76
84 | TATAAGGTGTCCTATACACACTCCAATAGATATATA [CACACA_site7066] | 6.94
85 | CTGAACCCGTTATGGTGTACATAAAATAAGACACAG [XGTACX_site3484] | 7.69
86 | ATTACATGCAATATATGTACGTAATATATATATATA [XGTACX_site2300] | 9.14
87 | AAAAAAAAAAAGTACACACATACATATAAATATATA [CACACA_site1809] | 7.52
88 | AAAGACGCAAAATTGGTGCGCTGCTTTTAGCATTTT | 9.78
89 | ACAGAATATTTAATTCAACACACATACATATTTATT [CACACA_site8734] | 7.06
